Reference: the supplement of paper PMC12217912
This is one part of the list. The full chains were built here from the parent and the listed change. Inactive controls read about 0.05.

B1: TEV protease; numbered along this chain (parent)
chain: MGESLFKGPRDYNPISSSICHLTNESDGHTTSLYGIGFGPFIITNKHLFRRNNGTLVVQSLHGVFKVKDTTTLQQHLVDGRDMIIIRMPKDFPPFPQKLKFREPQREERICLVTTNFQTKSMSSMVSDTSCTFPSGDGIFWKHWIQTKDGQCGSPLVSTRDGFIVGIHSASNFTNTNNYFTSVPKNFMELLTNQEAQQWVSGWRLNADSVLWGGHKVFMVKPEEPFQPVKEATQL

Variants of: B1
Assay: raw area under fraction-flipped curve 0-4 h after induction (AUC4h, not background-subtracted), DNA-recorder readout of cleavage of the substrate (dimensionless); higher = more cleavage of the substrate by the protease variant
Conditions: temperature: 34 °C; time window: 0-4 h after rhamnose induction
Experimental: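 In vivo DNA recorder in E. coli TOP10(DE3) ΔrhaA at 34 °C. Each TEVp single-site mutant (parent TEVp 0) is paired with a single-site variant of the 7-mer TEVs (canonical ENLYFQ|S). The substrate sits between flexible linkers in a Bxb1-sfGFP-TEVs-SsrA fusion, so cleavage stabilises Bxb1 and speeds flipping of a recombination array, read by NGS. The value is the raw area under the fraction-flipped curve over 0-4 h after rhamnose induction (AUC4h), with ≥20 reads per time point. It is not background-subtracted; inactive controls average about 0.047.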
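Note: Bxb1 expression induced with 0.2% (w/v) L-rhamnose at OD600 near 0.5, cultures sampled hourly, flipped fraction per protease–substrate barcode pair counted by paired-end Illumina sequencing.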

Row | Variant | area with substrate EALYFQS | area with substrate EDLYFQS | area with substrate EELYFQS | area with substrate EGLYFQS | area with substrate EHLYFQS | area with substrate EILYFQS | area with substrate EKLYFQS | area with substrate EPLYFQS | area with substrate EQLYFQS | area with substrate ERLYFQS
1 | MGESLFKGPRDYNPISSSICHLTNESDGHTTSLYGIGFGPFIITNKHLFRRNNGTLVVHSLHGVFKVKDTTTLQQHLVDGRDMIIIRMPKDFPPFPQKLKFREPQREERICLVTTNFQTKSMSSMVSDTSCTFPSGDGIFWKHWIQTKDGQCGSPLVSTRDGFIVGIHSASNFTNTNNYFTSVPKNFMELLTNQEAQQWVSGWRLNADSVLWGGHKVFMVKPEEPFQPVKEATQL [Q59H] | 0.113 | 0.14 | 0.12 | 0.102 | 0.0987 | 0.0812 | 0.11 | 0.0791 | 0.136 | 0.0972
2 | MGESLFKGPRDYNPISSSICHLTNESDGHTTSLYGIGFGPFIITNKHLFRRNNGTLVVQSLHGVFKVKDTTTLQQHLVDGRDMIIIRMPKDFPPFPQKLKFREPQREERICLVTTNFQTKSMSSMVSDTSCTFPSGDGIFWKHWIQTKDGQCGSPLVSTRDGKIVGIHSASNFTNTNNYFTSVPKNFMELLTNQEAQQWVSGWRLNADSVLWGGHKVFMVKPEEPFQPVKEATQL [F163K] | 0.102 |  | 0.133 |  |  | 0.103 | 0.103 |  | 0.111 | 
3 | MGESLFKGPRDYNPISSSICHLTNESDGHTTSLYGIGFGPFIITNKHLFRRNNGTLVVQSLHGVFKVKDTTTLQQHLVDGRDMIIIRMPKDFPPFPQKLKFREPQREERICLVTTNFQTKSMSSMVSDTSCTFPSGDGIFWKHWIQTKDGQCGSPLVSTRDGDIVGIHSASNFTNTNNYFTSVPKNFMELLTNQEAQQWVSGWRLNADSVLWGGHKVFMVKPEEPFQPVKEATQL [F163D] | 0.111 |  |  |  | 0.0549 | 0.0879 |  |  |  | 
4 | MFESLFKGPRDYNPISSSICHLTNESDGHTTSLYGIGFGPFIITNKHLFRRNNGTLVVQSLHGVFKVKDTTTLQQHLVDGRDMIIIRMPKDFPPFPQKLKFREPQREERICLVTTNFQTKSMSSMVSDTSCTFPSGDGIFWKHWIQTKDGQCGSPLVSTRDGFIVGIHSASNFTNTNNYFTSVPKNFMELLTNQEAQQWVSGWRLNADSVLWGGHKVFMVKPEEPFQPVKEATQL [G2F] | 0.129 | 0.145 |  |  | 0.149 | 0.131 |  |  |  | 0.179
5 | MGESLFKGPRDYNPISSSICHLTNESDGHTTSDYGIGFGPFIITNKHLFRRNNGTLVVQSLHGVFKVKDTTTLQQHLVDGRDMIIIRMPKDFPPFPQKLKFREPQREERICLVTTNFQTKSMSSMVSDTSCTFPSGDGIFWKHWIQTKDGQCGSPLVSTRDGFIVGIHSASNFTNTNNYFTSVPKNFMELLTNQEAQQWVSGWRLNADSVLWGGHKVFMVKPEEPFQPVKEATQL [L33D] | 0.0629 | 0.0734 | 0.0628 | 0.0574 | 0.0394 |  | 0.0875 | 0.0689 | 0.0562 | 0.0665
6 | MGESLFKGPRDYNPISSSICHLTNESDGHTISLYGIGFGPFIITNKHLFRRNNGTLVVQSLHGVFKVKDTTTLQQHLVDGRDMIIIRMPKDFPPFPQKLKFREPQREERICLVTTNFQTKSMSSMVSDTSCTFPSGDGIFWKHWIQTKDGQCGSPLVSTRDGFIVGIHSASNFTNTNNYFTSVPKNFMELLTNQEAQQWVSGWRLNADSVLWGGHKVFMVKPEEPFQPVKEATQL [T31I] | 0.141 | 0.166 | 0.138 |  |  | 0.129 | 0.0953 |  |  | 
7 | MGESLFKGPRDYNPISSSICHLTNESDGHTTSLYGIGFGPFIITNKHLFRRNNGTLVVQSFHGVFKVKDTTTLQQHLVDGRDMIIIRMPKDFPPFPQKLKFREPQREERICLVTTNFQTKSMSSMVSDTSCTFPSGDGIFWKHWIQTKDGQCGSPLVSTRDGFIVGIHSASNFTNTNNYFTSVPKNFMELLTNQEAQQWVSGWRLNADSVLWGGHKVFMVKPEEPFQPVKEATQL [L61F] | 0.0872 |  |  | 0.108 |  | 0.0711 |  |  |  | 
8 | MGESLFKGPRDYNPISSSICHLTNESDGHTTSLYGIGFGPFIITNKHLFRRNNGTLVVQSLHGVFKVKDTTTLQQHLVDGRDMIIIRMPKDFPPFPQKLKFREPQREERICLVTTNFQTKSMSSMVSDTSCTFPSGDGIFWKHWIQTKDGQCGSPLVSTRDGFIVGIHSASNFTNTNNYFTSVPKNFMELLTNQEAQQWVSGWRLNADSVLWGGHKVFMVKPEEPFQPVKIATQL [E231I] | 0.103 |  |  |  | 0.162 | 0.0936 | 0.136 | 0.101 | 0.102 | 
9 | MGESLFKGPRDYNPISSSICHLTNESDGHTTSLYGIGFGPFIITNKHLFRRNNGTLVVQSLHGVFKVKDTTTLQQHLVDGRDMIIIRMPKDFPPFPQKMKFREPQREERICLVTTNFQTKSMSSMVSDTSCTFPSGDGIFWKHWIQTKDGQCGSPLVSTRDGFIVGIHSASNFTNTNNYFTSVPKNFMELLTNQEAQQWVSGWRLNADSVLWGGHKVFMVKPEEPFQPVKEATQL [L99M] | 0.132 |  | 0.0683 |  |  | 0.0854 |  |  | 0.131 | 0.0902

Same assay, conditions: temperature: 34 °C; time window: 0-4 h after rhamnose induction

Row | Variant | area with substrate ESLYFQS | area with substrate ETLYFQS | area with substrate EVLYFQS | area with substrate EWLYFQS | area with substrate ELLYFQS | area with substrate EMLYFQS | area with substrate EFLYFQS | area with substrate EYLYFQS
10 | MGESLFKGPRDYNPISSSICHLTNESDGHTTSLYGIGFGPFIITNKHLFRRNNGTLVVHSLHGVFKVKDTTTLQQHLVDGRDMIIIRMPKDFPPFPQKLKFREPQREERICLVTTNFQTKSMSSMVSDTSCTFPSGDGIFWKHWIQTKDGQCGSPLVSTRDGFIVGIHSASNFTNTNNYFTSVPKNFMELLTNQEAQQWVSGWRLNADSVLWGGHKVFMVKPEEPFQPVKEATQL [Q59H] | 0.101 | 0.112 | 0.0798 | 0.0812 |  |  |  | 
11 | MGESLFKGPRDYNPISSSICHLTNESDGHTTSLYGIGFGPFIITNKHLFRRNNGTLVVQSLHGVFKVKDTTTLQQHLVDGRDMIIIRMPKDFPPFPQKLKFREPQREERICLVTTNFQTKSMSSMVSDTSCTFPSGDGIFWKHWIQTKDGQCGSPLVSTRDGKIVGIHSASNFTNTNNYFTSVPKNFMELLTNQEAQQWVSGWRLNADSVLWGGHKVFMVKPEEPFQPVKEATQL [F163K] |  |  |  |  | 0.0912 |  |  | 
12 | MGESLFKGPRDYNPISSSICHLTNESDGHTTSLYGIGFGPFIITNKHLFRRNNGTLVVQSLHGVFKVKDTTTLQQHLVDGRDMIIIRMPKDFPPFPQKLKFREPQREERICLVTTNFQTKSMSSMVSDTSCTFPSGDGIFWKHWIQTKDGQCGSPLVSTRDGDIVGIHSASNFTNTNNYFTSVPKNFMELLTNQEAQQWVSGWRLNADSVLWGGHKVFMVKPEEPFQPVKEATQL [F163D] |  |  | 0.0463 |  |  | 0.099 |  | 
13 | MFESLFKGPRDYNPISSSICHLTNESDGHTTSLYGIGFGPFIITNKHLFRRNNGTLVVQSLHGVFKVKDTTTLQQHLVDGRDMIIIRMPKDFPPFPQKLKFREPQREERICLVTTNFQTKSMSSMVSDTSCTFPSGDGIFWKHWIQTKDGQCGSPLVSTRDGFIVGIHSASNFTNTNNYFTSVPKNFMELLTNQEAQQWVSGWRLNADSVLWGGHKVFMVKPEEPFQPVKEATQL [G2F] | 0.159 | 0.198 | 0.133 |  | 0.129 | 0.145 | 0.152 | 
14 | MGESLFKGPRDYNPISSSICHLTNESDGHTTSDYGIGFGPFIITNKHLFRRNNGTLVVQSLHGVFKVKDTTTLQQHLVDGRDMIIIRMPKDFPPFPQKLKFREPQREERICLVTTNFQTKSMSSMVSDTSCTFPSGDGIFWKHWIQTKDGQCGSPLVSTRDGFIVGIHSASNFTNTNNYFTSVPKNFMELLTNQEAQQWVSGWRLNADSVLWGGHKVFMVKPEEPFQPVKEATQL [L33D] | 0.0661 | 0.0537 | 0.0663 | 0.069 | 0.0532 | 0.0623 |  | 
15 | MGESLFKGPRDYNPISSSICHLTNESDGHTISLYGIGFGPFIITNKHLFRRNNGTLVVQSLHGVFKVKDTTTLQQHLVDGRDMIIIRMPKDFPPFPQKLKFREPQREERICLVTTNFQTKSMSSMVSDTSCTFPSGDGIFWKHWIQTKDGQCGSPLVSTRDGFIVGIHSASNFTNTNNYFTSVPKNFMELLTNQEAQQWVSGWRLNADSVLWGGHKVFMVKPEEPFQPVKEATQL [T31I] | 0.117 |  | 0.107 | 0.104 |  | 0.123 |  | 0.108
16 | MGESLFKGPRDYNPISSSICHLTNESDGHTTSLYGIGFGPFIITNKHLFRRNNGTLVVQSFHGVFKVKDTTTLQQHLVDGRDMIIIRMPKDFPPFPQKLKFREPQREERICLVTTNFQTKSMSSMVSDTSCTFPSGDGIFWKHWIQTKDGQCGSPLVSTRDGFIVGIHSASNFTNTNNYFTSVPKNFMELLTNQEAQQWVSGWRLNADSVLWGGHKVFMVKPEEPFQPVKEATQL [L61F] |  |  | 0.0874 |  |  |  |  | 
17 | MGESLFKGPRDYNPISSSICHLTNESDGHTTSLYGIGFGPFIITNKHLFRRNNGTLVVQSLHGVFKVKDTTTLQQHLVDGRDMIIIRMPKDFPPFPQKLKFREPQREERICLVTTNFQTKSMSSMVSDTSCTFPSGDGIFWKHWIQTKDGQCGSPLVSTRDGFIVGIHSASNFTNTNNYFTSVPKNFMELLTNQEAQQWVSGWRLNADSVLWGGHKVFMVKPEEPFQPVKIATQL [E231I] | 0.0814 | 0.15 | 0.102 | 0.111 |  | 0.109 | 0.158 | 
18 | MGESLFKGPRDYNPISSSICHLTNESDGHTTSLYGIGFGPFIITNKHLFRRNNGTLVVQSLHGVFKVKDTTTLQQHLVDGRDMIIIRMPKDFPPFPQKMKFREPQREERICLVTTNFQTKSMSSMVSDTSCTFPSGDGIFWKHWIQTKDGQCGSPLVSTRDGFIVGIHSASNFTNTNNYFTSVPKNFMELLTNQEAQQWVSGWRLNADSVLWGGHKVFMVKPEEPFQPVKEATQL [L99M] | 0.0961 |  | 0.0883 |  |  | 0.0652 |  | 
